# Results are given in words; binding and its absence hold for the method and conditions named. Binding seen in cells or lysates may run through a third protein. Some results given as binding are weak or reduced against the parent protein; the word gives no strength.
# Protein sequences, listed by entry. Tags and fused reporters are not part of them.
# UniProt Q8VIG1: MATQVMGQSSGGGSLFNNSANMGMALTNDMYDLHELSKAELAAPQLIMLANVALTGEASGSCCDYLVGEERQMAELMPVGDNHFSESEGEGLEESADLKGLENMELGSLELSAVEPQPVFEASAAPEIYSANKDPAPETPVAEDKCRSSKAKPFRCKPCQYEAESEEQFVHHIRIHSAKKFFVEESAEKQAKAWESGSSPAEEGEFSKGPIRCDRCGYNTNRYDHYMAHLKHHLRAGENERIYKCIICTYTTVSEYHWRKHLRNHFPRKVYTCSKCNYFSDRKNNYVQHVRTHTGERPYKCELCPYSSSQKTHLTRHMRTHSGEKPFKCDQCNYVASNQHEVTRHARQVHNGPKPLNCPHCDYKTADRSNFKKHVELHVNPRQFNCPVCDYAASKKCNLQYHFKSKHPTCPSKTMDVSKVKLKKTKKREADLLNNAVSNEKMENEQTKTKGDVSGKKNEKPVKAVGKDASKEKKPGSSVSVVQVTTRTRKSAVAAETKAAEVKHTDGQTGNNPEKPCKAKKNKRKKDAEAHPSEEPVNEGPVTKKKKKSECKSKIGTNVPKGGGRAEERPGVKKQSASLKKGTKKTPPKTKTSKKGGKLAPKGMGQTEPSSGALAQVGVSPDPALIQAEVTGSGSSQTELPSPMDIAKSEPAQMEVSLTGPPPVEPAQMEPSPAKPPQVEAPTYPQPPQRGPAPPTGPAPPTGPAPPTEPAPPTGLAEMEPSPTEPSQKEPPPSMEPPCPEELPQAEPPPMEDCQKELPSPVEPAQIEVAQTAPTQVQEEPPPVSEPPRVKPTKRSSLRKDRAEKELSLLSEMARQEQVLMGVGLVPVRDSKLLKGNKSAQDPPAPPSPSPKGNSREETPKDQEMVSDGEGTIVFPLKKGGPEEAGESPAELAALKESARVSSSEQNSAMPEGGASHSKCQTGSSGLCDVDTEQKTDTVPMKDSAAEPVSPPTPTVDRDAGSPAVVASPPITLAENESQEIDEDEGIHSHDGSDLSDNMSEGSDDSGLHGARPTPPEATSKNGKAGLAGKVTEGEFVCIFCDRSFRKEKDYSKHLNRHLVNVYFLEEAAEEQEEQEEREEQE
# UniProt Q13127: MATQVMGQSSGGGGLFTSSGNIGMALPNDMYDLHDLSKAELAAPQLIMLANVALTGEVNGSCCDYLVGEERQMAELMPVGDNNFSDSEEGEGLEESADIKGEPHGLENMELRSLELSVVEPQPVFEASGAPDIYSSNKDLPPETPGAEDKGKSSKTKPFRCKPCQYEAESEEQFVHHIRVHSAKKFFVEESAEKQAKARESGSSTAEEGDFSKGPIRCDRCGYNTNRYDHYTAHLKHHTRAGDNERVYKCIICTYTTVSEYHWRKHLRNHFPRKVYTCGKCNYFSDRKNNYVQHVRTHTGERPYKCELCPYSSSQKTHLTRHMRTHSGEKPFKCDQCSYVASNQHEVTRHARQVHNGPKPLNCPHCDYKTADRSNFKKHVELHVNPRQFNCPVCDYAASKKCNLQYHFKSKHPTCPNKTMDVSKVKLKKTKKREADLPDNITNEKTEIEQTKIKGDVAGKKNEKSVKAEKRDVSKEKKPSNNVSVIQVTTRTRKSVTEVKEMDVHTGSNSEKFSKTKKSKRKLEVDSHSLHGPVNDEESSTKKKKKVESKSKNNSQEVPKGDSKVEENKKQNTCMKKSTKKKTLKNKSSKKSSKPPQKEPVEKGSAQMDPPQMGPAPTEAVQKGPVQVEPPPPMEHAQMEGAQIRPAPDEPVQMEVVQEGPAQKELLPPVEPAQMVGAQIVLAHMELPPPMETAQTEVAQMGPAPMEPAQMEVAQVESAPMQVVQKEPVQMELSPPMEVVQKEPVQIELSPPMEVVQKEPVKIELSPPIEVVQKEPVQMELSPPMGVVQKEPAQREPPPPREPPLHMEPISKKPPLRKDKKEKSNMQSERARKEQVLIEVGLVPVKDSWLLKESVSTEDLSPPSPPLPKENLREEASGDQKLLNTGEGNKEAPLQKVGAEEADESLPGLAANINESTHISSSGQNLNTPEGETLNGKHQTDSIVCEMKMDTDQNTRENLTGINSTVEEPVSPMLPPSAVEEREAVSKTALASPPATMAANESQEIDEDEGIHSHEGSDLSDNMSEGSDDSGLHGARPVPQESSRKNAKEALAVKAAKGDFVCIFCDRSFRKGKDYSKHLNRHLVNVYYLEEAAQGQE
# UniProt Q80U70: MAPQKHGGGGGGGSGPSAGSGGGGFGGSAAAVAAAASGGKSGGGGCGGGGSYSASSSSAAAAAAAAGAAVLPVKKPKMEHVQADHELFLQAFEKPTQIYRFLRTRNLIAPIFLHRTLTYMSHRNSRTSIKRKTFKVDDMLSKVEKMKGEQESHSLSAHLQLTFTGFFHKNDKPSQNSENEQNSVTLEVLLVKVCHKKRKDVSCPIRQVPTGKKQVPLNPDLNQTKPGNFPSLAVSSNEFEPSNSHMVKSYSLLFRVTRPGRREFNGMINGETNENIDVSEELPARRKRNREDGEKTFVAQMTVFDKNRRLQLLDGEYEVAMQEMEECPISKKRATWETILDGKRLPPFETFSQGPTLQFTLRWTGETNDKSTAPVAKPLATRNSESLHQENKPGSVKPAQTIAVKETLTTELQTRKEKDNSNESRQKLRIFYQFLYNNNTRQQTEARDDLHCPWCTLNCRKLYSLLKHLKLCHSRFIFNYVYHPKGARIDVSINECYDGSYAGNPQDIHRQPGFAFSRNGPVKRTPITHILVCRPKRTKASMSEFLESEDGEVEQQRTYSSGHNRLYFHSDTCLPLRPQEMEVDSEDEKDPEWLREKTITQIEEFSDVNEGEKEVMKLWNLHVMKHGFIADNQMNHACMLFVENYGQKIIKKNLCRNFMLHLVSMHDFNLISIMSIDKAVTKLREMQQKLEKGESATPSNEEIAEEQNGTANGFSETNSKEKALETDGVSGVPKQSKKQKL
# UniProt Q9BSM1: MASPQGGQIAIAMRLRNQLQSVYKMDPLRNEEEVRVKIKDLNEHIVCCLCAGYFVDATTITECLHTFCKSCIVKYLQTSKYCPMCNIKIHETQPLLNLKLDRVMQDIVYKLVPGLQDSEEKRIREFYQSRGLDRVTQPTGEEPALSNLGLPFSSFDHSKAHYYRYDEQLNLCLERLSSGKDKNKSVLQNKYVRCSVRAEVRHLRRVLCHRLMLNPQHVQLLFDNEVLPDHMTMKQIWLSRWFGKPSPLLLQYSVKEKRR
# UniProt Q9CQJ4: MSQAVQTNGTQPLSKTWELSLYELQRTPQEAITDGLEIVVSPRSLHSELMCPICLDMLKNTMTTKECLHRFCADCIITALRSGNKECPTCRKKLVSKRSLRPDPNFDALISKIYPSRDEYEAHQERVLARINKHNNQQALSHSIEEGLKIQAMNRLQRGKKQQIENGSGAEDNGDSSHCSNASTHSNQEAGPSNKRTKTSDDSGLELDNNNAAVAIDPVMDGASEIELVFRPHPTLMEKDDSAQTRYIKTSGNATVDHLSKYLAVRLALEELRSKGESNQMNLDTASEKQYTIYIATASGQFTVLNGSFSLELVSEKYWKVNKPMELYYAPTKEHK
# UniProt Q15022: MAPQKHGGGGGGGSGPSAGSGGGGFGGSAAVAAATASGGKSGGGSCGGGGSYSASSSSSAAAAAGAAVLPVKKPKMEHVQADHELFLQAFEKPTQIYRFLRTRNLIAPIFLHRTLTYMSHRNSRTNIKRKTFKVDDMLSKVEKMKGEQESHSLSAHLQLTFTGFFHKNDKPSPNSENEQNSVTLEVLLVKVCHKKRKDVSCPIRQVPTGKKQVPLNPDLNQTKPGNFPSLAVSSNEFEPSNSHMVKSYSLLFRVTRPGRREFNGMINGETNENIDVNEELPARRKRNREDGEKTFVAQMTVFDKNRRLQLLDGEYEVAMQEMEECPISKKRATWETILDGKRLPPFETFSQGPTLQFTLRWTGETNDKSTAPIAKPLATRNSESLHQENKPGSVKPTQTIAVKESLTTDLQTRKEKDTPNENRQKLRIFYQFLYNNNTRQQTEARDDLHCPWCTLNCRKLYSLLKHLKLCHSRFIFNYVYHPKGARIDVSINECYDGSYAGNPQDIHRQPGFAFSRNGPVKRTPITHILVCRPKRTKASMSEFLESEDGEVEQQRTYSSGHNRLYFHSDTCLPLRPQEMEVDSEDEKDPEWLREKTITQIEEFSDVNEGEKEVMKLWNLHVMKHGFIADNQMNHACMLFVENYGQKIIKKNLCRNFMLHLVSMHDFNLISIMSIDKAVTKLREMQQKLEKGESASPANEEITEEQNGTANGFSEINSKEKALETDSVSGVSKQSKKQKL
# UniProt O75461: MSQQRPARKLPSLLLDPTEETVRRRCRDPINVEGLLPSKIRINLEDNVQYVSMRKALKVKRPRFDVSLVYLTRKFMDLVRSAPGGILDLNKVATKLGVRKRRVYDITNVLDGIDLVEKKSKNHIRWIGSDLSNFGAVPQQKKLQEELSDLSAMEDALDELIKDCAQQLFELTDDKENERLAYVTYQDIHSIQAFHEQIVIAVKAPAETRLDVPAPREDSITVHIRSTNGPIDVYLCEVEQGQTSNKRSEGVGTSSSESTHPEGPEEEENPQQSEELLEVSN
# UniProt Q6W2J9: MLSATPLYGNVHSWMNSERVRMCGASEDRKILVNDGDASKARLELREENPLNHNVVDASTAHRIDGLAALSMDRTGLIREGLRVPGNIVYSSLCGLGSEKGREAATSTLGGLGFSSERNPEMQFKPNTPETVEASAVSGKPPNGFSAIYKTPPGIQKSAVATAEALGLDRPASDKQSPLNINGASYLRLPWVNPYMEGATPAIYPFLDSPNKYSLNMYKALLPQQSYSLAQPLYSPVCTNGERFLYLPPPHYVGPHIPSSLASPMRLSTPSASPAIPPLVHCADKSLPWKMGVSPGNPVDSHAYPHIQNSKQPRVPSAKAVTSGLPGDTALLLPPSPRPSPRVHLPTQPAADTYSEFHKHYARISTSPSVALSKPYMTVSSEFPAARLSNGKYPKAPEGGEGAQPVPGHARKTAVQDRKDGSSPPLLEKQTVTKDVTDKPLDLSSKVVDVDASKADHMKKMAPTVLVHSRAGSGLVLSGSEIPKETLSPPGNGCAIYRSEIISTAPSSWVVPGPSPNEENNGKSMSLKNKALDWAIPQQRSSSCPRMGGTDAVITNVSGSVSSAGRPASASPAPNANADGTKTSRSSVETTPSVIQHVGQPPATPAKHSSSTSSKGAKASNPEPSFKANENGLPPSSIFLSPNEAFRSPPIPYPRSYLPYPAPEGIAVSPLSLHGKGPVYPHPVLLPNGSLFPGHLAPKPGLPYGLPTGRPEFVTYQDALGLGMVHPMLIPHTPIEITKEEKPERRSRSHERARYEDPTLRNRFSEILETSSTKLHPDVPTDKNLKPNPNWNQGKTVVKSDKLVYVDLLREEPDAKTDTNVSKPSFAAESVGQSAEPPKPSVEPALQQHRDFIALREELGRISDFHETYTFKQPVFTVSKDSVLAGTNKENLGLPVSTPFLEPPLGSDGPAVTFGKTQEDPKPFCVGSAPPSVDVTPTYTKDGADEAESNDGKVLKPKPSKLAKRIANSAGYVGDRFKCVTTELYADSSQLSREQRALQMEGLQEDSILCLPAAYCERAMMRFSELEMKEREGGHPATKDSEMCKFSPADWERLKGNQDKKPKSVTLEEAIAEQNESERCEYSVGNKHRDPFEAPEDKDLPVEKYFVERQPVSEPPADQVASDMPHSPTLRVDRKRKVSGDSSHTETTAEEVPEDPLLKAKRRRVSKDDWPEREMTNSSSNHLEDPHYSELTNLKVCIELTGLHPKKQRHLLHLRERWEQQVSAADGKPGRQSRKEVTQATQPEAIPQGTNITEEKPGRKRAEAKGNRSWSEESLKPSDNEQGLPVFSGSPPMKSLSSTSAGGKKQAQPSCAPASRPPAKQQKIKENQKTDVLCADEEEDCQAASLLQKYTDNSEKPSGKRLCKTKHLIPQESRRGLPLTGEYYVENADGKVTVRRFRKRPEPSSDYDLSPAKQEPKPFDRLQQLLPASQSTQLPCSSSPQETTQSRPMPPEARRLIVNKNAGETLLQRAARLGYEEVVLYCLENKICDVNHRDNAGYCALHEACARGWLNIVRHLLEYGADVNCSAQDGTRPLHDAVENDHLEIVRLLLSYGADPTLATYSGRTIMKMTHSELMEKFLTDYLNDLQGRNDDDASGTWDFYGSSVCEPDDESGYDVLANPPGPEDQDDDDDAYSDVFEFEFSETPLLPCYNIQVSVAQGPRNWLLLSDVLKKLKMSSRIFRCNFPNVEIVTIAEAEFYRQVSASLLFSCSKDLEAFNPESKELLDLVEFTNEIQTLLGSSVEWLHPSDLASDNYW
# UniProt Q13185: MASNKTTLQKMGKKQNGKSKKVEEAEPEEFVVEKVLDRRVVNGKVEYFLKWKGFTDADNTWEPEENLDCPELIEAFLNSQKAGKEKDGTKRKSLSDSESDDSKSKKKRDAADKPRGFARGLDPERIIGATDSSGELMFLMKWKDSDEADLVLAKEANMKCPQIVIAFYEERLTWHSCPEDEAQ
# Experiments:
# [1] = target: Rest (mouse) (mouse (endogenous in mES cells)) (UniProt Q8VIG1); assay: co-IP; anti-Rest or control IgG on pooled size-exclusion fractions (1: F8–10; 2: F11–13; 3: F22) of nuclear extracts from Wt, Eed−/− or Rnf2−/− mES cells; Western blotting
# [2] = target: REST (Neuron-Restrictive Silencing Factor) (human (endogenous in NT2-D1 and HEK293)) (UniProt Q13127); assay: co-IP; anti-REST or control IgG cross-linked to protein A-Sepharose; pooled Superose 6 fractions of NT2-D1 nuclear extract (pool 1: F7–9; pool 2: F11–13; pool 3: F21–22); Western blotting
# [3] = target: Flag-Ha-REST (UniProt Q13127); assay: co-IP; anti-Flag IP from lysates of HEK293 cells expressing Flag-Ha-REST alone or with GAL4-RNF2 or with HA-EED, EZH2 and SUZ12; immunoprecipitates incubated with or without RNase or ethidium bromide; Western blotting
Substance,binding [2],other results
Suz12 (mouse) (from UniProt Q80U70 1-741),,binding [1]: binds
CBX7 (from UniProt O95931 1-251),binds,
HA-EED (from UniProt O75530 1-441),,binding [3]: binds
RNF2 (from UniProt Q99496 1-336),binds,
NSPC1 (from UniProt Q9BSM1 1-259),binds,
Rnf2 (mouse) (from UniProt Q9CQJ4 1-336),,binding [1]: binds
BMI1 (from UniProt P35226 1-326),binds,
GAL4-RNF2 (from UniProt Q99496 1-336),,binding [3]: binds
SUZ12 (expressed in HEK293 with HA-EED and EZH2) (from UniProt Q15022 1-739),,binding [3]: binds

# Second part, led by results:
binding [2],Substance,other results
no binding,E2F6 (from UniProt O75461 1-281),
binds,SUZ12 (from UniProt Q15022 1-739),
no binding,BCOR (from UniProt Q6W2J9 1-1755),
no binding,HP1γ (from UniProt Q13185 1-183),

# Reference: article PMC3291536
